Molecular target: T1, β3 subunit PSI, hybrid, βI, and I-EGF-1 domains (UniProt P05106)
T1 sequence: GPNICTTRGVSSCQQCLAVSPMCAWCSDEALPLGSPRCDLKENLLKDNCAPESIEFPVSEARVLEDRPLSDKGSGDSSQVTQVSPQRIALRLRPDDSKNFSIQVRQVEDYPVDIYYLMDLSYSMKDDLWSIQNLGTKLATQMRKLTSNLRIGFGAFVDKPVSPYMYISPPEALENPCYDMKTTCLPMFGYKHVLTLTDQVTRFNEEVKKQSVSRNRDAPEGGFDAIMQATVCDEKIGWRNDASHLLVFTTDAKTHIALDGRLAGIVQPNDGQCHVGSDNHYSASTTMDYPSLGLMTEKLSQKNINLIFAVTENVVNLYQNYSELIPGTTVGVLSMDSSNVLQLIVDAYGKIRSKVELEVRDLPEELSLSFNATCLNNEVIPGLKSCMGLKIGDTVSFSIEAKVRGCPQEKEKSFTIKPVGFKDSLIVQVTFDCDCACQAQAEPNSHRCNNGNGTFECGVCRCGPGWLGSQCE
Assay: crystal structure

binding result: binds
B1: αIIb subunit β-propeller domain (domain or fragment)
chain: not shown

Source: paper PMC3691460 (The Journal of Cell Biology, 2013)
